Assay results taken from the supplement of paper PMC8285479.
Counter-ions that a name gives are not always drawn. ± gives the standard deviation of the averaged measurements. In all, about 1,900 compounds were measured (“normalised cell viability (NPI; 0 = phenylarsine oxide control, 1 = DMSO control)”: median about 1, lowest 2% from about 0.039 on). The list shows a part of the results.

Test system: NCI-H1944
Assay: normalised cell viability (NPI; 0 = phenylarsine oxide control, 1 = DMSO control) (fraction of DMSO control); NCI-H1944 is a non-small cell lung cancer line; higher = more viable cells (less compound toxicity)
Details: 6 days
[1] = glucocorticoid arm: hydrocortisone 2.75 uM co-treatment, compound 1 µM
[2] = glucocorticoid arm: hydrocortisone 2.75 uM co-treatment, compound 5 µM
[3] = glucocorticoid arm: hydrocortisone 2.75 uM pre-treated 2 days and continued, compound 1 µM
[4] = glucocorticoid arm: hydrocortisone 2.75 uM pre-treated 2 days and continued, compound 5 µM
[5] = glucocorticoid arm: vehicle, compound 1 µM
[6] = glucocorticoid arm: vehicle, compound 5 µM
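Further: CTB read-out in 384-well plates, mean of triplicate wells, normalised per plate against 1 µM phenylarsine oxide and 0.1% DMSO, compounds added 24 h after seeding.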

Compound	normalised cell viability [1]	normalised cell viability [2]	normalised cell viability [3]	normalised cell viability [4]	normalised cell viability [5]	normalised cell viability [6]
C[C@H]1C[C@H]2[C@@H]3CCC4=CC(=O)C=C[C@]4(C)[C@@]3(F)[C@@H](O)C[C@]2(C)[C@@]1(O)C(=O)CO [Betamethasone]	0.987 ± 0.02	0.981 ± 0.016	0.998 ± 0.01	1.03 ± 0.014	0.831 ± 0.01	0.818 ± 0.025
Nc1ncnc2c1ncn2[C@@H]1O[C@H](COP(=O)(O)CP(=O)(O)OP(=O)([O-])O)[C@@H](O)[C@H]1O.[Li+] [alpha,beta-Methylene adenosine 5'-triphosphate lithium salt]	1.02 ± 0.011	1 ± 0.036	1.01 ± 0.014	0.992 ± 0.013	1.005 ± 0.0081	1.02 ± 0.021
CNC(=O)c1cc(COc2nnc(Nc3ccc(Cl)cc3)c3ccoc23)ccn1 [Telatinib (BAY 57-9352)]	0.9903 ± 0.0035	0.983 ± 0.041	0.978 ± 0.013	0.978 ± 0.022	1.002 ± 0.0072	0.979 ± 0.011
COc1cc2nccc(Oc3ccc(NC(=O)C4(C(=O)Nc5ccc(F)cc5)CC4)cc3)c2cc1OC [XL-184 free base (Cabozantinib)]	0.9763 ± 0.0032	1.02 ± 0.02	0.998 ± 0.021	1.03 ± 0.011	0.9957 ± 0.0029	1.007 ± 0.0058
COc1cc2nccc(Oc3ccc(NC(=O)C4(C(=O)Nc5ccc(F)cc5)CC4)cc3)c2cc1OC [Cabozantinib malate (XL184)]	0.974 ± 0.0076	0.558 ± 0.033	0.98 ± 0.013	0.583 ± 0.0076	1.013 ± 0.0058	0.869 ± 0.016
COc1cc2nccc(Oc3ccc(NC(=O)C4(C(=O)Nc5ccc(F)cc5)CC4)cc3)c2cc1OC [XL184; Cabozantinib]	0.9953 ± 0.0045	0.6313 ± 0.0025	0.996 ± 0.016	0.71 ± 0.017	1.01 ± 0.01	0.884 ± 0.019
CN1CCN(c2nc3cc(C(F)(F)F)ccc3n3cccc23)CC1	0.99 ± 0.0089	0.983 ± 0.0066	1 ± 0.024	1.04 ± 0.015	0.983 ± 0.0053	0.9807 ± 0.0025
COCCOC(=O)C1=C(C)NC(C)=C(C(=O)OC/C=C/c2ccccc2)C1c1cccc([N+](=O)[O-])c1 (stereo not given) [Cilnidipine]	0.985 ± 0.02	0.926 ± 0.018	0.9927 ± 0.0081	1.01 ± 0.02	0.973 ± 0.001	0.996 ± 0.001
Cc1cc([C@@H](C)Nc2ccccc2C(=O)O)c2nc(N3CCOCC3)cc(=O)n2c1	0.878 ± 0.043	0.764 ± 0.062	0.879 ± 0.023	0.791 ± 0.03	0.9667 ± 0.0091	0.899 ± 0.035
CCn1nc(C(=O)O)c(=O)c2cc3c(cc21)OCO3 [Cinoxacin]	1.003 ± 0.0058	1.017 ± 0.0058	1.017 ± 0.0058	1.003 ± 0.0099	1 ± 0.012	1.01 ± 0.011
N=C(N)SCCc1c[nH]cn1 [Imetit dihydrobromide]	0.992 ± 0.0036	0.989 ± 0.027	0.994 ± 0.0044	1.01 ± 0.093	0.9897 ± 0.0068	1 ± 0.0089
Cc1cnc(NC(=O)C2=C(O)c3ccccc3S(=O)(=O)N2C)s1 [Meloxicam sodium]	1.01	0.999 ± 0.032	1.01 ± 0.018	1.01 ± 0.042	1.013 ± 0.0058	1.023 ± 0.0058
CC(C)NCC(O)COc1ccc(CC(N)=O)cc1 (racemic) [(±)-Atenolol]	0.987 ± 0.007	1.001 ± 0.0085	1.003 ± 0.0064	1.02 ± 0.021	1.005 ± 0.0092	1.01
O=C(O)CCCc1ccccc1 [Phenylbutyrate·Na]	1.02 ± 0.021	1.04 ± 0.015	1.01 ± 0.011	1.04 ± 0.015	1.005 ± 0.0092	1.02 ± 0.015
O=C(O)CCCc1ccccc1 [Sodium Phenylbutyrate]	0.9903 ± 0.0049	1.02 ± 0.011	1.007 ± 0.0058	1.01 ± 0.035	1.003 ± 0.0058	1.007 ± 0.0058
COc1cc(NS(C)(=O)=O)ccc1Nc1c2ccccc2nc2ccccc12 [Amsacrine hydrochloride]	0.714 ± 0.011	0.143 ± 0.029	1.017 ± 0.0058	0.596 ± 0.12	0.427 ± 0.018	0.0435 ± 0.0037
FC(F)c1nc2ccccc2n1-c1nc(N2CCOCC2)nc(N2CCOCC2)n1	0.649 ± 0.029	0.627 ± 0.013	0.603 ± 0.038	0.702 ± 0.054	0.691 ± 0.048	0.831 ± 0.028
CN(C)c1ccc(/C=C2/C(=O)Nc3ccccc32)cc1	0.99733 ± 0.00058	1.01 ± 0.014	1.03 ± 0.021	1.03 ± 0.02	0.9937 ± 0.0035	0.9903 ± 0.0055
Nc1nc2[nH]c(=O)cnc2c(=O)[nH]1 [Isoxanthopterin]	0.995 ± 0.013	1.02 ± 0.029	0.996 ± 0.016	1.04 ± 0.066	0.9957 ± 0.0038	1 ± 0.015
CC(C)(C)[C@]1(O)CCN2C[C@H]3c4ccccc4CCc4cccc(c43)[C@@H]2C1 (racemic) [(±)-Butaclamol hydrochloride]	0.9893 ± 0.0032	0.932 ± 0.018	0.858 ± 0.22	0.999 ± 0.0014	0.968 ± 0.006	0.9723 ± 0.0031
C=CC(=O)Nc1ccc2ncnc(Nc3cccc(Br)c3)c2c1	0.892 ± 0.019	0.8703 ± 0.0015	0.848 ± 0.0092	0.906 ± 0.038	0.826 ± 0.032	0.697 ± 0.021
CN1CCN(CCOc2cc(OC3CCOCC3)c3c(Nc4c(Cl)ccc5c4OCO5)ncnc3c2)CC1 [Saracatinib (AZD0530)]	0.809 ± 0.039	0.632 ± 0.02	0.78 ± 0.025	0.692 ± 0.043	0.8173 ± 0.0045	0.577 ± 0.027
Nc1ccc(S(=O)(=O)Nc2ccnn2-c2ccccc2)cc1 [Sulfaphenazole]	1.001 ± 0.0085	1.01 ± 0.01	0.877 ± 0.22	1 ± 0.015	0.9927 ± 0.007	0.9893 ± 0.006
NCCNC(=O)c1ncsc1-c1cccc(F)c1 [Ro 41-1049 hydrochloride]	1.01 ± 0.011	1.01 ± 0.011	1.01 ± 0.029	1.02 ± 0.016	0.996 ± 0.0035	0.996 ± 0.0069
COc1ccccc1N1CCN(CCCCNS(=O)(=O)c2cccc3c(N(C)C)cccc23)CC1	0.99 ± 0.0027	0.794 ± 0.029	1 ± 0.023	0.9483 ± 0.0032	0.9867 ± 0.0045	0.99 ± 0.0061
